From publication PMC9911399, “Two distinct binding modes provide the RNA-binding protein RbFox with extraordinary sequence specificity”
Residue numbers refer to the chain shown, from its start. The list shows a part of the results.

T1: RBFOX1 RRM (Homo sapiens, UniProt Q9NWB1 109-208)
T1 sequence: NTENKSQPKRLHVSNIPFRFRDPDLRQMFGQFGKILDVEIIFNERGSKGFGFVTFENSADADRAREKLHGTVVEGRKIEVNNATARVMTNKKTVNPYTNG

B1: AAUAAAC (DNA:RNA)
RNA: GGGAGACCGGAAUUCAGAUUGUCCAAUAAACUUAAAUCCCGUCGUAGCCACCA
DNA 1: CAATCTGAATTCCGGTCTCCC
DNA 2: TGGTGGCTACGACGGGATT
B2: UUAGCCA (DNA:RNA)
RNA: GGGAGACCGGAAUUCAGAUUGUCCUUAGCCAUUAAAUCCCGUCGUAGCCACCA
DNA 1: CAATCTGAATTCCGGTCTCCC
DNA 2: TGGTGGCTACGACGGGATT
B3: CGUUUGA (DNA:RNA)
RNA: B1 RNA with A25C, A26G, A28U, A29U, A30G, C31A
DNA 1: CAATCTGAATTCCGGTCTCCC
DNA 2: TGGTGGCTACGACGGGATT
B4: CCUUGGA (DNA:RNA)
RNA: B1 RNA with A25C, A26C, A28U, A29G, A30G, C31A
DNA 1: CAATCTGAATTCCGGTCTCCC
DNA 2: TGGTGGCTACGACGGGATT
B5: GCAGUGG (DNA:RNA)
RNA: B2 RNA with U25G, U26C, C29U, C30G, A31G
DNA 1: CAATCTGAATTCCGGTCTCCC
DNA 2: TGGTGGCTACGACGGGATT
B6: GUCCGGA (DNA:RNA)
RNA: B2 RNA with U25G, A27C, G28C, C29G, C30G
DNA 1: CAATCTGAATTCCGGTCTCCC
DNA 2: TGGTGGCTACGACGGGATT
B7: AAGGAUU (DNA:RNA)
RNA: B1 RNA with U27G, A28G, A30U, C31U
DNA 1: CAATCTGAATTCCGGTCTCCC
DNA 2: TGGTGGCTACGACGGGATT
B8: CCAACCG (DNA:RNA)
RNA: B2 RNA with U25C, U26C, G28A, A31G
DNA 1: CAATCTGAATTCCGGTCTCCC
DNA 2: TGGTGGCTACGACGGGATT
B9: UGGCCCU (DNA:RNA)
RNA: B2 RNA with U26G, A27G, G28C, A31U
DNA 1: CAATCTGAATTCCGGTCTCCC
DNA 2: TGGTGGCTACGACGGGATT
B10: GAUUCUG (DNA:RNA)
RNA: B1 RNA with A25G, A28U, A29C, A30U, C31G
DNA 1: CAATCTGAATTCCGGTCTCCC
DNA 2: TGGTGGCTACGACGGGATT
B11: CACUUGG (DNA:RNA)
RNA: B1 RNA with A25C, U27C, A28U, A29U, A30G, C31G
DNA 1: CAATCTGAATTCCGGTCTCCC
DNA 2: TGGTGGCTACGACGGGATT
B12: GCCGAGG (DNA:RNA)
RNA: B1 RNA with A25G, A26C, U27C, A28G, A30G, C31G
DNA 1: CAATCTGAATTCCGGTCTCCC
DNA 2: TGGTGGCTACGACGGGATT
B13: UGUCUUC (DNA:RNA)
RNA: B1 RNA with A25U, A26G, A28C, A29U, A30U
DNA 1: CAATCTGAATTCCGGTCTCCC
DNA 2: TGGTGGCTACGACGGGATT
B14: ACAUUCA (DNA:RNA)
RNA: B2 RNA with U25A, U26C, G28U, C29U
DNA 1: CAATCTGAATTCCGGTCTCCC
DNA 2: TGGTGGCTACGACGGGATT
B15: AUAAGGG (DNA:RNA)
RNA: B1 RNA with A26U, U27A, A29G, A30G, C31G
DNA 1: CAATCTGAATTCCGGTCTCCC
DNA 2: TGGTGGCTACGACGGGATT
B16: GGUCGGA (DNA:RNA)
RNA: B1 RNA with A25G, A26G, A28C, A29G, A30G, C31A
DNA 1: CAATCTGAATTCCGGTCTCCC
DNA 2: TGGTGGCTACGACGGGATT
B17: UAACACC (DNA:RNA)
RNA: B1 RNA with A25U, U27A, A28C, A30C
DNA 1: CAATCTGAATTCCGGTCTCCC
DNA 2: TGGTGGCTACGACGGGATT
B18: UGUAGCU (DNA:RNA)
RNA: B1 RNA with A25U, A26G, A29G, A30C, C31U
DNA 1: CAATCTGAATTCCGGTCTCCC
DNA 2: TGGTGGCTACGACGGGATT
B19: GCGGAAG (DNA:RNA)
RNA: B1 RNA with A25G, A26C, U27G, A28G, C31G
DNA 1: CAATCTGAATTCCGGTCTCCC
DNA 2: TGGTGGCTACGACGGGATT
B20: UGGCUCG (DNA:RNA)
RNA: B2 RNA with U26G, A27G, G28C, C29U, A31G
DNA 1: CAATCTGAATTCCGGTCTCCC
DNA 2: TGGTGGCTACGACGGGATT

These binders were tested against T1, RBFOX1 RRM (assay: EMSA; HiTS-Eq, 1 nM pool, 10 min; buffer printed only for the single-RNA assays: 10 mM Tris pH 7.5, 150 mM NaCl, 3.4 mM EDTA, 0.001% NP-40, 30 C). Settings: tags: His6 N-terminal (pET28a); label: 5' 32P.
How it was run: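 These values rest on relative association constants, computed from read-count changes of each RNA species versus the control reaction and normalised to the cognate motif. Reads came from free RNA recovered by 8% native PAGE after purified RbFox RRM (wild type or mutant) at increasing concentrations was equilibrated for 10 min in 50 µL with 1 nM of a 5′-radiolabelled pool with 7 randomized nucleotides and DNA-annealed flanks.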

Row | Binder | binding signal
1 | B1 | 0.0042 KA relative to UGCAUGU
2 | B2 | 0.00507 KA relative to UGCAUGU
3 | B3 | 0.0182 KA relative to UGCAUGU
4 | B4 | 0.00739 KA relative to UGCAUGU
5 | B5 | 0.0173 KA relative to UGCAUGU
6 | B6 | 0.00347 KA relative to UGCAUGU
7 | B7 | 0.00827 KA relative to UGCAUGU
8 | B8 | 0.00184 KA relative to UGCAUGU
9 | B9 | 0.0154 KA relative to UGCAUGU
10 | B10 | 0.0258 KA relative to UGCAUGU
11 | B11 | 0.0107 KA relative to UGCAUGU
12 | B12 | 0.0183 KA relative to UGCAUGU
13 | B13 | 0.0182 KA relative to UGCAUGU
14 | B14 | 0.00105 KA relative to UGCAUGU
15 | B15 | 0.00198 KA relative to UGCAUGU
16 | B16 | 0.000339 KA relative to UGCAUGU
17 | B17 | 0.00243 KA relative to UGCAUGU
18 | B18 | 0.0103 KA relative to UGCAUGU
19 | B19 | 0.0153 KA relative to UGCAUGU
20 | B20 | 0.0396 KA relative to UGCAUGU
